Reference: the RNAGym collection of RNA variant scans (doi:10.7554/elife.90254)
Read counts are not given, so values of variants with three or more changes are uncertain.

B1: LINE1-full (parent)
chain: UACGUAGGUGGUUUUCCCCUGAUAGUGCUAAGGGGGCCUGGAAGUUUGGACUGGGCAGAGCUCAACACAGCGUGGCAAAGUGGCUGUGGCUAGACUGCCUCUCUGGAUUCCUCGUCACUCAGCAGGGCAUCUCUGAGAGAAAUGCC

Variants of: B1
Experiment: self-cleavage, relative activity (ratio to wild type); higher = more cleavage; in vitro, sequencing; the parent is a self-cleaving ribozyme
With U46C A64U U143C the self-cleavage was 0.35.
For G27A C37U U39G U104C A140G, the self-cleavage was 1.11.
With U26A U29C U47A C68U the self-cleavage was 0.19.
Work on U12C U46C G49A G89A A138U yielded a self-cleavage of 0.06.
For U14C A79G A140C, the self-cleavage was 0.42.
U29A U96G G144A gave a self-cleavage of 0.06.
U14A A22G U26C A78G showed a self-cleavage of 0.
U12C A79U U108A showed a self-cleavage of 2.36.
With U20A A94G A141U the self-cleavage was 0.56.
With A67G A124G U132C the self-cleavage was 0.23.
U26C U73G C133A showed a self-cleavage of 1.81.
G49A U85C A129G gave a self-cleavage of 0.07.
Variant U46C A142G U143C has a self-cleavage of 1.31.
Variant A2G C61U A67U has a self-cleavage of 0.07.
For A69U A136G A140G, the self-cleavage was 0.05.
Work on U14C U87A U109C A141G yielded a self-cleavage of 0.12.
For A6G U46A C61U U73A U81A, the self-cleavage was 0.
With G32A A59G A142G the self-cleavage was 0.
Work on C3G U14C A42G U46C A138G A142G yielded a self-cleavage of 1.15.
Work on U15A U47A A59G A65G A107G yielded a self-cleavage of 0.
Work on U47C U73A A121G yielded a self-cleavage of 2.06.
Work on U9C U20C A67U A94C G126A A140G yielded a self-cleavage of 0.12.
Variant U29C U47C A78U has a self-cleavage of 2.81.
Work on U62C A69G U130C yielded a self-cleavage of 0.15.
With U1A A24G C51U the self-cleavage was 0.79.
A57U U91A U104C A140G showed a self-cleavage of 0.05.
Variant A69G C90A A117G has a self-cleavage of 0.06.
Variant U26A U29C U102C has a self-cleavage of 0.98.
In the case of U12C A59G C90A, the self-cleavage is reported as 0.07.
For A30C U39G A42G U73A U115A, the self-cleavage was 1.37.
A57U A92G U100C A138G gave a self-cleavage of 0.13.
With A24G G70A A77C U81C A94G the self-cleavage was 1.31.
Variant U73A U109A A138G U143C has a self-cleavage of 1.72.
With U26C U47A A57G G75C the self-cleavage was 0.27.
U46C U52A A79G U130C gave a self-cleavage of 0.92.
With G33A U62C A142G the self-cleavage was 0.05.
In the case of U104C A129G U134A, the self-cleavage is reported as 1.72.
U5G A67G A141G gave a self-cleavage of 0.87.
With U1C U39C A59G U119C the self-cleavage was 0.
Work on U45C A77G U91C yielded a self-cleavage of 0.84.
Variant U12C U81A U104C A142G has a self-cleavage of 2.12.
For U13C U85C U119C, the self-cleavage was 0.33.
In the case of C3U U52A A65U U100C U119C, the self-cleavage is reported as 0.34.
Work on G21A U73C U87A U112A U134A yielded a self-cleavage of 0.12.
Variant U29A G70U U73C has a self-cleavage of 0.26.
Variant U12C U20C G88A has a self-cleavage of 0.16.
Work on G8A A69G U115A A129G yielded a self-cleavage of 0.33.
G36U U52G A121U gave a self-cleavage of 1.67.
U20C A64G G72U showed a self-cleavage of 0.16.
For U26C U29C C98G, the self-cleavage was 0.09.
U1C A2G G54U A57G A69G showed a self-cleavage of 0.06.
U12C U47C A64G showed a self-cleavage of 0.29.
With G54U A59C A136U A138U the self-cleavage was 0.59.
Variant C18A A57G U119A has a self-cleavage of 0.54.
Work on U14C G33A G60A U85G yielded a self-cleavage of 0.1.
Variant U52A U91A A92G has a self-cleavage of 0.23.
Work on A43G A57G A140G yielded a self-cleavage of 0.84.
Variant U13C U14C A142G G144A has a self-cleavage of 1.39.
Variant U85C U115C U132C has a self-cleavage of 0.31.
For U12A U20C U62C A92G A136U, the self-cleavage was 0.11.
For A59U U85A U108C, the self-cleavage was 0.13.
For U14A A30G U102A, the self-cleavage was 1.27.
Work on U20C C38U U85C yielded a self-cleavage of 0.2.
With A57U U73C U91C the self-cleavage was 0.
U1A U29C G75U U115A A121U showed a self-cleavage of 0.76.
In the case of G60U C71U A107U, the self-cleavage is reported as 0.03.
Variant A42G U73A U104C has a self-cleavage of 2.73.
With U45A U46C A124U the self-cleavage was 1.5.
In the case of U26A U52A U91C U100C U132C, the self-cleavage is reported as 0.88.
In the case of U81C U104C A129U, the self-cleavage is reported as 1.62.
Work on C56U A79G C101U yielded a self-cleavage of 0.1.
U115C A124G A138G showed a self-cleavage of 2.57.
In the case of U13C U85C A142G, the self-cleavage is reported as 0.47.
With U1A U87A U102A C113U the self-cleavage was 0.08.
In the case of U1C A43C U132C A140G, the self-cleavage is reported as 0.44.
With A31U A43G U96C A141G the self-cleavage was 0.11.
Variant A22G A121G U134A has a self-cleavage of 0.86.
U20A U26C A69U G89A A92G A94U U132C gave a self-cleavage of 0.11.
Work on A22G C61U A94U yielded a self-cleavage of 0.
For U13C A65G U112C, the self-cleavage was 0.2.
In the case of C38U A42G U115C A117U, the self-cleavage is reported as 1.08.
A65G A77U A140G gave a self-cleavage of 0.
U102A U134C A136U A140G gave a self-cleavage of 2.53.
In the case of C3U U81A U96A U104G, the self-cleavage is reported as 0.11.
U20C A79G U132C showed a self-cleavage of 2.55.
Variant U13A A64G A65G has a self-cleavage of 0.
Work on U13C U96C U104A A136U yielded a self-cleavage of 0.23.
In the case of U9A C19A A107U, the self-cleavage is reported as 0.88.
Variant U13C A24G A77G U134A has a self-cleavage of 0.77.
Work on A2G U26A U47A yielded a self-cleavage of 0.48.
Work on U20C A92G U96A yielded a self-cleavage of 0.13.
With G53A A78G U119C A138U A142G the self-cleavage was 1.98.
With U13C C19G A31U C37U U87C the self-cleavage was 0.31.
U1C A22G A30G A42U U143A gave a self-cleavage of 1.13.
G55A A69G U73A A138U showed a self-cleavage of 0.05.
U13A A43G A77U U87C A141G showed a self-cleavage of 0.
For A22G C131A A140U, the self-cleavage was 1.64.
Work on U12C U15A A142G yielded a self-cleavage of 1.45.
For A24U A94G C99A U102A, the self-cleavage was 0.09.
Variant U29C U39A A94U U104C has a self-cleavage of 0.25.
G49A U81C U130C A140U showed a self-cleavage of 1.68.
Work on A57G A67U U109C yielded a self-cleavage of 0.15.
In the case of G25C U52A C98A, the self-cleavage is reported as 0.44.
Work on U12A U104C U134A yielded a self-cleavage of 0.91.
For U12C A69U U81C, the self-cleavage was 0.29.
U13C A22U G126A U130A showed a self-cleavage of 1.51.
Work on A50G A64C A69U C84A A138G U143C yielded a self-cleavage of 0.02.
Variant U20C G49A U108C has a self-cleavage of 1.12.
Work on A64G U112C A140G yielded a self-cleavage of 0.3.
A77G A124U A129G showed a self-cleavage of 0.88.
Work on U52C G74A U85C C113A A136G yielded a self-cleavage of 0.03.
A92C U96A A121U C128U showed a self-cleavage of 0.03.
U1C C99U U109A A142U showed a self-cleavage of 0.36.
Work on A30C A57G A79G U85C yielded a self-cleavage of 0.
U5G U15A A43U C111U gave a self-cleavage of 0.44.
Variant U20A U73A A92G U100C has a self-cleavage of 0.06.
U26C A65G A107G U132C gave a self-cleavage of 0.
U13C A42G A78G gave a self-cleavage of 1.84.
A50G A57G A69G A140G showed a self-cleavage of 0.
Variant A50U A64G A94U A107G A142G has a self-cleavage of 0.13.
In the case of U1C A94G U143A, the self-cleavage is reported as 0.14.
In the case of A57U C101U A141G, the self-cleavage is reported as 0.19.
Variant U39A A79G U102A has a self-cleavage of 1.68.
With A31G A43G A129G the self-cleavage was 2.3.
In the case of U12G U13C A43G U47A A79G, the self-cleavage is reported as 2.
Variant U20C C71U A124G has a self-cleavage of 0.55.
G32U U39C A79G U143A showed a self-cleavage of 2.02.
U91C U119A U143C showed a self-cleavage of 0.82.
For U62A G88A A141G, the self-cleavage was 0.04.
U5C U20G A42U A121U gave a self-cleavage of 0.74.
A65G U104C U132C showed a self-cleavage of 0.
With U13C A50G A140G the self-cleavage was 0.69.
Variant A107G U112C A121G has a self-cleavage of 0.77.
In the case of U20C C51A C76U U91C, the self-cleavage is reported as 1.17.
With G80A A124G G125U A136G the self-cleavage was 0.76.
A6U U39C C110A A142G showed a self-cleavage of 1.21.
U14C U81C A117U G139A gave a self-cleavage of 2.44.
In the case of U26C C56U A142G, the self-cleavage is reported as 0.18.
A65G U85C U104C gave a self-cleavage of 0.
For A42G U130C A140G, the self-cleavage was 0.8.
In the case of U20C A30G A67U U104A, the self-cleavage is reported as 0.
In the case of G4U U14A A50G G54U, the self-cleavage is reported as 0.2.
U14C C71A U119A gave a self-cleavage of 0.17.
U13C G75A C98A U115A A117G showed a self-cleavage of 0.11.
In the case of U26A U96G C113U, the self-cleavage is reported as 0.08.
G10A U52A G72A showed a self-cleavage of 0.62.
U13C U47C U100C showed a self-cleavage of 1.84.
In the case of U45C G58A U81A A94U U108C, the self-cleavage is reported as 0.03.
U5C A59G A77U A121U showed a self-cleavage of 0.32.
Work on U13C C19U G34U U62C yielded a self-cleavage of 0.2.
U13A A64U A124C gave a self-cleavage of 0.42.
A64G U109A U119C gave a self-cleavage of 0.35.
With U26C U52C A79G A121U U143C the self-cleavage was 1.41.
A78G C116U A142U showed a self-cleavage of 0.72.
Work on U12G A124G A129U A138G yielded a self-cleavage of 1.71.
Work on U15C A43G U115A G126U yielded a self-cleavage of 1.26.
U1C A2G U132C A141G showed a self-cleavage of 1.29.
A64G A69G G127C gave a self-cleavage of 0.
Variant A22G A50G A140G has a self-cleavage of 0.25.
Variant G8A A43G U119A has a self-cleavage of 1.66.
U5A U29C U112A A140G gave a self-cleavage of 0.71.
In the case of U47C A57U C99U A141G, the self-cleavage is reported as 0.08.
With U13A U47C A94U A107G the self-cleavage was 0.28.
A57G G86A U96A U115C G127A showed a self-cleavage of 0.
For G27U U52C A64G U73C C95A, the self-cleavage was 0.02.
G4A U26C A142G showed a self-cleavage of 0.84.
Variant U39C G53A G54A A65G A141G has a self-cleavage of 0.06.
